# PubChem BioAssay AID2675 (National Center for Advancing Translational Sciences (NCATS), 2010)
# The whole screen tested about 280,000 compounds, of which about 100 (0.036%) were called active. The shares of active, inactive and inconclusive entries below differ from those in the screen. Calls follow the shape of the dose curve; as a rule, active = well fitted inhibition curve with a large enough effect in the signal ratio, with a control signal flat (not every such curve was filed as active); inconclusive = small, poorly fitted or top-dose-only effect, or effect the other way, or a change in a side signal; inactive = no such curve, though single readings can be large or run the other way; the % refers to the signal ratio. Potencies of inconclusive entries are doubtful fits and often do not repeat. “Side channel” marks fits to a control or component signal instead of the main read-out.
# Target: Muscleblind-like protein 1 (Homo sapiens) (UniProt Q9NR56)
# Experiment: qHTS Assay for Inhibitors of MBNL1-poly(CUG) RNA binding
# Settings: TR-FRET MBNL1-His/biotin-(CUG)12 binding, 665/545 ratio; activity change, negative = inhibition: at 57.5 µM (top of the series)
# Method in brief: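 MBNL1-His + Biotin-(CUG)12, cpd titration 92 nM–58 uM; Tb anti-His Ab 0.055 ng/ul, SA-XL665 5 nM (final); 60 min RT; ratiometric 665/545 nm, Ex 340 nm; normalized to buffer and full-complex controls.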
# % is scaled to controls: 0 for no effect and ±100 for the full control effect; potency is read from the fitted curve at half-maximal effect; tags tell the direction and shape of the fitted curve or compound fluorescence and quenching.
# Sequence of UniProt Q9NR56 (Q9NR56 whole entry, looked up): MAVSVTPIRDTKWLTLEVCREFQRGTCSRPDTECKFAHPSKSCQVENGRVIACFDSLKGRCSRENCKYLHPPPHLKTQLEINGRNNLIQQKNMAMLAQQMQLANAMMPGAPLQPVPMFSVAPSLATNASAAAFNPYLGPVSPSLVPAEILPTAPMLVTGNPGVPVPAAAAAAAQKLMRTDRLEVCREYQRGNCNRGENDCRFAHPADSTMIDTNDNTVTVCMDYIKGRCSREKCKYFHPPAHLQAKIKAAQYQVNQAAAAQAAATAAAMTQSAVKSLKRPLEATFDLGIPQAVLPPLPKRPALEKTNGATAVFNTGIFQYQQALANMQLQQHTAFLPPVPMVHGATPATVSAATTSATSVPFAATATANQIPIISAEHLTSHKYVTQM
SMILES,Potency,"activity change, negative = inhibition"
O=C1c2ccc([N+](=O)[O-])cc2S(=O)(=O)N1Cc1ccccc1,"inconclusive: 4.47 µM [quencher, side channel, full curve]",
COc1ccc(C(=O)CSc2nc(C)cc(C)n2)cc1[N+](=O)[O-],"inconclusive: 25.1 µM [quencher, side channel, partial curve]",
CCCc1c(O)nc(SCC(=O)NCc2ccco2)[nH]c1=O,"inconclusive: 126 µM [inhibitor, single point]",
CCC(=O)C1CCCN(C(=O)CCc2nnc(-c3ccc(C(C)=O)s3)o2)C1 (stereo not drawn),"inconclusive: 12.6 µM [quencher, side channel, partial curve]",
COc1cc(/C=N/NC(=O)c2cc(-c3cccn3C)n[nH]2)cc(OC)c1OC,,inactive: 11.3%
O=C(c1ccc([N+](=O)[O-])cc1)n1nc(-c2ccccc2)nc1NCc1ccccc1,"inconclusive: 31.6 µM [quencher, side channel, single point]",
O=C(CSc1nc2c(c(=O)n1-c1ccc(Cl)cc1)SCC2)N1CCCC1,"inconclusive: 14.1 µM [quencher, side channel, partial curve]",
O=S(=O)(c1cccs1)N1CCN(CC(O)COC2CCCc3ccccc32)CC1 (stereo not drawn),,inactive: -0.815%
Cc1ccc(NC(=O)CN(C)C(=O)COc2cc(F)ccc2[N+](=O)[O-])cc1,"inconclusive: 20 µM [quencher, side channel, single point]",
Clc1ccc(/C=C/c2ncc[nH]2)c(Cl)c1,"inconclusive: 31.6 µM [quencher, side channel, single point]",
COc1ccc2[nH]c3c(=O)n(N)c(=O)[nH]c3c2c1,"inconclusive: 14.1 µM [quencher, side channel, partial curve]",
Cc1ccc(S(=O)(=O)NCCNc2ccccc2[N+](=O)[O-])cc1,"inconclusive: 17.8 µM [quencher, side channel, partial curve]",
Nc1ccc2c(c1)C(=O)N(CCCC(=O)O)C2=O,"inconclusive: 31.6 µM [quencher, side channel, single point]",
CCCCCCCC(=O)N/N=C/c1ccc([N+](=O)[O-])o1,"inconclusive: 12.6 µM [activator, single point]",
COc1ccc(-c2cc(=O)oc3c(C)c(OC(C)C(=O)Nc4ccc(CN5CCOCC5)cc4)ccc23)cc1 (stereo not drawn),"inconclusive: 15.8 µM [quencher, side channel, partial curve]",
O=C(/C=C/c1ccc([N+](=O)[O-])s1)N1CCCCC1,"inconclusive: 15.8 µM [quencher, side channel, partial curve]",
O=S(=O)(Cc1ccc(Cl)cc1)NCC1CCCO1 (stereo not drawn),"inconclusive: 0.891 µM [quencher, side channel, partial curve, poor fit]",
CCOc1ccc2nc(NC(=O)CSc3nc4ccccc4c(=O)n3Cc3ccco3)sc2c1,,inactive: -10.9%
CC/C(Cc1ccccc1)=N\NC(=O)c1cc([N+](=O)[O-])cc([N+](=O)[O-])c1,"inconclusive: 11.2 µM [quencher, side channel, partial curve]",
COc1ccccc1NC(=O)CN1CCN(CC(=O)Nc2ccc(F)cc2)CC1,,inactive: 7.23%
COc1cc(/C=C2\SC(=S)N(c3cccnc3)C2=O)ccc1O,"inconclusive: 0.794 µM [quencher, side channel, full curve]",

SMILES,Potency,"activity change, negative = inhibition"
O=C(N/N=C/C(Br)=C\c1ccccc1)c1ccc2nc[nH]c2c1,"inconclusive: 35.5 µM [quencher, side channel, partial curve]",
O=c1nc2ccccc2c2n1CC(CN1CCN(c3ccc(F)cc3)CC1)N2 (stereo not drawn),"inconclusive: 7.08 µM [quencher, side channel, single point]",
Cc1cc(Nc2ccc(Br)cc2)nc(-c2ccccc2O)n1,"inconclusive: 25.1 µM [fluorescent, side channel, single point]",
COC(C[C@@H]1O[C@@H]1[C@@H](O)[C@H](C)OCc1ccccc1)OC,,inactive: -2.91%
Cc1ccccc1NC(=S)NCCO,,inactive: -1.85%
COc1cc(OC)c(OC)cc1CN(C)CC1CCCN(CCc2ccccc2F)C1 (stereo not drawn),,inactive: -0.469%
O=C(O)c1cccc(NC2=C(n3nnc4ccccc43)C(=O)c3ccccc3C2=O)c1,"inconclusive: 11.2 µM [quencher, side channel, partial curve]",
CC1CCN(c2oc(-c3ccccc3Cl)nc2C#N)CC1,,inactive: 11.6%
CCOc1ccccc1C(=O)Nc1ccc(S(=O)(=O)Nc2nccc(C)n2)cc1,,inactive: -1.96%
O=[N+]([O-])c1ccccc1S(=O)(=O)Oc1ccccc1/C=N/n1cnnc1,"inconclusive: 15.8 µM [quencher, side channel, partial curve]",
Cc1ccc(N=C2C(=O)Nc3c(C)cccc32)cc1,"inconclusive: 22.4 µM [quencher, side channel, partial curve]",
Cc1cc(C)c(C#N)c(SCc2ccc(C#N)cc2)n1,,inactive: -0.0932%
CCOc1ccc(NC2=C(OC)C(=O)c3ccccc3C2=O)cc1,"inconclusive: 12.6 µM [quencher, partial curve]",
CCOc1ccc(C(=O)Nc2cccc(C(=O)O)c2C)cc1Cl,,inactive: -26.4%
N/C(=N\OC(=O)c1cc([N+](=O)[O-])ccc1Cl)c1ccccn1,"inconclusive: 3.16 µM [quencher, side channel, full curve]",
Cc1cccc(C2NC(=O)c3ccccc3O2)c1 (stereo not drawn),,inactive: -10.4%
CN1CCC(=NNC(=O)c2ccc(N(Cc3ccccc3Cl)S(C)(=O)=O)cc2)CC1,"inconclusive: 31.6 µM [quencher, side channel, single point]",
O=C(NCCCN1CCN(CCCNC(=O)c2cc([N+](=O)[O-])ccc2Cl)CC1)c1cc([N+](=O)[O-])ccc1Cl,"inconclusive: 12.6 µM [quencher, side channel, partial curve]",
Oc1ccc(NCc2cccs2)cc1,"inconclusive: 39.8 µM [quencher, side channel, single point]",
O=C(CN1C(=O)CSc2ccc(S(=O)(=O)N3CCOCC3)cc21)NCCCN1CCOCC1,,inactive: -2.51%
CC(C)N(C(=O)Cn1cnc2cc([N+](=O)[O-])ccc2c1=O)C(C)C,"inconclusive: 12.6 µM [quencher, side channel, partial curve]",

SMILES,Potency,"activity change, negative = inhibition"
CCN1CC=C2C(C1)C(c1ccc(Cl)s1)C(C#N)=C(N)C2(C#N)C#N (stereo not drawn),"inconclusive: 15.8 µM [quencher, side channel, partial curve]",
C[C@H](NC(=O)c1nc[nH]c1C(=O)N[C@@H](Cc1ccccc1)C(=O)OC(C)(C)C)C(=O)OC(C)(C)C,,inactive: -6.64%
COc1cc2c(cc1OC)C1O[C@](CCCCN3C(=O)c4ccccc4C3=O)(C2)OC2=C1C(=O)c1ccccc1C2=O,,inactive: 9.65% [at 11.5 µM]
Cc1cc(C)n(CC(=O)N/N=C/c2cc([N+](=O)[O-])ccc2O)n1,"inconclusive: 39.8 µM [quencher, side channel, partial curve]",
CC(NC(=O)Nc1ccccc1)C(c1cccs1)N1CCOCC1 (stereo not drawn),,inactive: -5.21%
O=C(CCN1C(=O)c2ccccc2C1=O)NC(=S)Nc1ccccc1,,inactive: 11.3%
COc1ccc(-c2cc3ccc(O)cc3oc2=O)cc1OC,"inconclusive: 12.6 µM [quencher, side channel, partial curve]",
O=C(NC(=S)Nc1ccc(NC(=O)c2cccs2)cc1)c1ccc([N+](=O)[O-])cc1,"inconclusive: 4.47 µM [quencher, side channel, partial curve]",
C/C(CC(=O)Nc1ccc(N(C)C)cc1)=N\NC(=O)c1ccc([N+](=O)[O-])cc1,"inconclusive: 14.1 µM [quencher, side channel, partial curve]",
COc1ccc([N+](=O)[O-])cc1N(CC(=O)NCCSc1ccccc1)S(C)(=O)=O,"inconclusive: 20 µM [quencher, side channel, single point]",
O=[N+]([O-])c1ccc(SCc2c(F)cccc2Cl)nc1,"inconclusive: 1.26 µM [quencher, side channel, full curve, poor fit]",
Cn1c(=O)c2c([nH]c(=S)n2Cc2ccc(Cl)cc2)n(C)c1=O,,inactive: 10%
COc1ccc(NC(=O)C2CCN(C(=O)c3ccc(OC)cc3)CC2)cc1,"inconclusive: 79.4 µM [inhibitor, single point]",
O=C(CCl)Nc1c2c(nn1-c1ccccc1)CSC2,"inconclusive: 39.8 µM [fluorescent, side channel, single point]",
S=C1NNC2(NN1)C1CC3CC(C1)CC2C3,,inactive: -0.866%
COc1ccc(N2CCN(S(=O)(=O)c3cccs3)CC2)cc1,"inconclusive: 10 µM [quencher, side channel, single point]",
CC1(C(=O)NNC(=O)c2ccc([N+](=O)[O-])cc2)CC1(Br)Br (stereo not drawn),"inconclusive: 10 µM [quencher, partial curve]",
O=C(Oc1c(CN2CCOCC2)cc(Cl)c2cccnc12)c1ccc(F)cc1,"inconclusive: 39.8 µM [quencher, side channel, single point]",
CC(C)[C@H](NC(N)=O)C(=O)Nc1cccc([N+](=O)[O-])c1,"inconclusive: 25.1 µM [quencher, side channel, single point]",
CCc1ccc(OCCNC(=O)c2ccc(S(=O)(=O)N(C)C)cc2)cc1,,inactive: -1.23%
O=C(NCC1CCCO1)c1ccc2c(c1)C(=O)N(C1CCCCC1)C2=O (stereo not drawn),"inconclusive: 15.8 µM [quencher, partial curve]",
